Data reported in PubChem BioAssay AID485294 (National Center for Advancing Translational Sciences (NCATS), 2010).
About 150 (0.041%) of roughly 370,000 compounds were called active. This list was built around the results that the source calls inconclusive (neither active nor inactive); the mix of calls is not that of the screen. Calls follow the shape of the dose curve; as a rule, active = well fitted inhibition curve with a large enough effect; inconclusive = small, poorly fitted or top-dose-only effect; inactive = flat fitted curve, though single readings scatter. No potency is given beside an inconclusive call; the fits are too rough.

biological target: Beta-lactamase (Escherichia coli (strain K12)) (UniProt P00811); test: qHTS Inhibitors of AmpC Beta-Lactamase (assay with detergent); conditions: AmpC hydrolysis of nitrocefin, absorbance 480 nm, 0.01% Triton; series mostly up to 114 µM; also: nearly all actives have a fitted effect of over 25% in size
Sequence of UniProt P00811 (P00811 whole entry, looked up): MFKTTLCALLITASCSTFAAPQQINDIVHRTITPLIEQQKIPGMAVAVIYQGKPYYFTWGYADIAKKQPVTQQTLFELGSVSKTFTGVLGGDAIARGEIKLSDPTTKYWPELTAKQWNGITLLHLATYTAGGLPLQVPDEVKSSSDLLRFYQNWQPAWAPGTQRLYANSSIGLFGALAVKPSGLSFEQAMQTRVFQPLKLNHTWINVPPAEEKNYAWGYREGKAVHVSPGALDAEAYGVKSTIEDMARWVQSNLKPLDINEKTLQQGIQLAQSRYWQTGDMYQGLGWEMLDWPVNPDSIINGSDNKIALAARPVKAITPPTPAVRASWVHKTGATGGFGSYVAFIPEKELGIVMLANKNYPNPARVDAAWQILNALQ
Summary of the method: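 20 mM phosphate pH 7.0 + 0.01% (detergent screen) or 0.0001% Triton X-100; 5.3 nM AmpC reagent; cpd preinc 15 min RT; nitrocefin (800 uM stock) to start; A480 q20 s × 4 min; Activity was normalised to no-enzyme and no-compound control wells.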
Potency is read from the fitted curve at half-maximal effect; tags tell the direction and shape of the fitted curve.

Compound | Potency
COc1ccc(C2(C(=O)NCc3ccco3)CCCC2)cc1OC | inactive
O=C(Cc1ccc(-c2ccccc2)cc1)NCCS(=O)(=O)N1CCN(c2ccc(F)cc2)CC1 | inactive
CCCCn1c(N)c(N(CC(C)C)C(=O)C2CCN(S(=O)(=O)c3ccc(OCC)cc3)CC2)c(=O)[nH]c1=O | inactive
COC(=O)CCCNS(=O)(=O)c1ccc2ccccc2c1 | inconclusive [inhibitor, partial curve, poor fit]
Cc1c(CCNC(=O)c2c(F)cccc2F)sc2nc(-c3ccc(F)cc3)nn12 | inactive
Cc1nc(NC(=S)NC(=O)COc2ccc(Cl)cc2)ccc1Br | inconclusive [inhibitor, partial curve, poor fit]
O=C(COC(=O)Cc1ccc(Cl)c(Cl)c1)Nc1ccc2[nH]c(=O)[nH]c2c1 | inactive
COc1ccc(C(=O)n2nc(-c3ccc(OC)cc3)nc2N)cc1 | inconclusive [inhibitor, full curve]
CC12CCC(=O)N1C(C(=O)Nc1nc3ccc(S(C)(=O)=O)cc3s1)CS2 (stereo not drawn) | inconclusive [inhibitor, full curve]
O=C(CSc1nnc(Nc2ccccc2)s1)Nc1cccnc1Cl | inconclusive [inhibitor, partial curve]
CS(=O)(=O)N(Cc1ccc(C(=O)NC2CCCCC2O)cc1)c1ccccc1 (stereo not drawn) | inconclusive [inhibitor, full curve, poor fit]
O=C(c1ccc(NC2=NC3CS(=O)(=O)CC3S2)cc1)N1CCN(c2ccccc2)CC1 (stereo not drawn) | inconclusive [inhibitor, partial curve]
O=c1cc(-c2cc3ccccc3o2)c2cc(O)ccc2o1 | inconclusive [inhibitor, full curve]
CC12CCC(C(=O)NCCN3CCCCC3)(CC1=O)C2(C)C (stereo not drawn) | inconclusive [inhibitor, full curve]
CCC(C)C(=O)N[C@@H](c1ccccc1)[C@@H](O)C(=O)O[C@H]1C[C@@]2(O)[C@@H](OC(=O)c3ccccc3)C3[C@](C)(C(=O)[C@H](OC(C)=O)C(=C1C)C2(C)C)[C@@H](O)C[C@H]1OC[C@@]31OC(C)=O (stereo partly drawn) | inconclusive [inhibitor, full curve, poor fit]
O=C1CC(c2ccc3c(c2)OCO3)CN1 (stereo not drawn) | inconclusive [inhibitor, partial curve]
NC(=S)Nc1ccccc1Br | inactive
Cc1ccc(S(=O)(=O)NC(CC(C)C)C(=O)N2CCCCCCC2)cc1 (stereo not drawn) | inconclusive [inhibitor, full curve]
Cc1cnc(C(=O)Nc2nnc(C3CC3)s2)cn1 | inconclusive [inhibitor, partial curve]
CCCC1(c2ccccc2)NC(=O)NC1=O (stereo not drawn) | inconclusive [inhibitor, full curve, poor fit]
CCc1c(O)cc2n(c1=O)-c1ccc(Cl)cc1C2(C)C | inconclusive [inhibitor, partial curve]
CSCC[C@H](NC(=O)[C@H](Cc1ccccc1)n1c(=O)[nH]c2ccccc2c1=O)C(=O)NCC1CCC(C(=O)O)CC1 (stereo partly drawn) | inconclusive [inhibitor, full curve, poor fit]

Compound | Potency
Cn1c(=O)[nH]c(=O)c2c1nc(Br)n2CCCc1ccccc1 | inconclusive [inhibitor, full curve]
CCNCC(=O)Nc1c(C)cccc1C | inconclusive [inhibitor, full curve]
CCn1cc(C(=O)N2CCOCC2)c(=O)c2cc(S(=O)(=O)N(C)C3CCCCC3)ccc21 | inconclusive [inhibitor, full curve]
C/C(CC(O)(/C=N/O)c1ccccc1)=N\O (stereo not drawn) | inconclusive [inhibitor, partial curve]
CCOCCc1nnc(NC(=O)C(=O)c2cc(C)n(-c3ccc(C)cc3C)c2C)s1 | inactive
CCCCCNS(=O)(=O)c1cc2c3c(c1)CCC(=O)N3CCC2 | inconclusive [inhibitor, full curve, poor fit]
COC(=O)C1=C(C)N(CC2CCCO2)C(=O)/C1=C\c1ccc(O)cc1 (stereo not drawn) | inactive
CC(=O)c1c(C)nn(CC(O)Cn2c3c(c4cc(C)ccc42)CCCC3=O)c1C (stereo not drawn) | inconclusive [inhibitor, partial curve, poor fit]
CCOC(=O)c1[nH]c2ccccc2c1NC(=O)CC | inconclusive [inhibitor, partial curve, poor fit]
COc1cccc(NC(=O)Cc2nnc(SCC(=O)NC(C)c3ccccc3)n2C)c1 (stereo not drawn) | inconclusive [inhibitor, full curve, poor fit]
O=C(NCCC1=CCCCC1)NC1CCCCC1 | inactive
CC1CCN(C(=O)Cn2c(=O)n(CCc3ccccc3)c(=O)c3ccccc32)CC1 | inconclusive [inhibitor, single point]
O=C(c1cc2cc(Cl)ccc2oc1=O)N1CCOCC1 | inconclusive [inhibitor, single point]
CC(C)C1NC(=S)N(C2CCCCC2)C1=O (stereo not drawn) | inconclusive [inhibitor, full curve, poor fit]
CC(=O)Nc1cccc(Cl)c1C(=O)O | inconclusive [inhibitor, full curve]
COc1cc(C(Nc2ccc(S(=O)(=O)N3CCC(C)CC3)cc2)C(=O)NCC2CCCO2)cc(OC)c1OC (stereo not drawn) | inactive
O=C(COc1ccccc1Cl)NCc1ccncc1 | inconclusive [inhibitor, single point]
CCc1ccccc1NC(=O)NC1CC2CCC(C1)N2Cc1cccs1 (stereo not drawn) | inactive
CCOCCc1nn2c(=O)cc(COC(=O)c3ccccc3OC)nc2s1 | inactive
O=C(NCCS(=O)(=O)NCC1CCCO1)c1ccccc1 (stereo not drawn) | inconclusive [inhibitor, full curve, poor fit]
COCCCn1c(SCc2cccc(Cl)c2)nc2c(sc3ccccc32)c1=O | inactive
